The other results are listed elsewhere or left out.
system: T1, Caupolican (Caup) homeodomain DNA-binding domain; assay: PBM E-score (8-mer, recovered from the published 9-mer minima) (E-score (dimensionless, -0.5 to 0.5)); Drosophila protein; higher = stronger relative binding preference, active = 0.31 or more
T1 sequence: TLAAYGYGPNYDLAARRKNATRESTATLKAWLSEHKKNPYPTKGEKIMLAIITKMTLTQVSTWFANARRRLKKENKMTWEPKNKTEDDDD
How it was run: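 Caup's homeodomain DNA-binding domain (residues 214-303) was made by in vitro transcription and translation and applied at 100 nM to custom-designed protein binding microarrays. Each value is an enrichment score that gives relative binding preference for a short DNA word, with higher meaning stronger. The 8-mer values were recovered from published 9-mer scores, each of which was the minimum of its two constituent 8-mer scores. A cutoff of 0.31 marks candidate sites.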

| Sequence | PBM E-score |
| --- | --- |
| AACTGGGC | inactive: -0.169 |
| AGGGCCGG | inactive: -0.279 |
| AACTTTTC | inactive: 0.0404 |
| AAGTAGGG | inactive: 0.0412 |
| CAACCTAC | inactive: -0.0324 |
| AATTCACG | inactive: -0.0221 |
| CATGGGCA | inactive: -0.0568 |
| GTGCAGCA | inactive: -0.066 |
| AATCCAAA | inactive: 0.0835 |
| GCCACCTA | inactive: -0.192 |
| CCCGTGGC | inactive: -0.321 |
| AGGTTACA | inactive: 0.191 |
| TAGGACAA | inactive: 0.228 |
| GCAAGTGA | inactive: 0.0247 |
| ACAGAATA | ≥ 0.149 |
| GAATACAC | inactive: 0.25 |
| GCTGTTCA | inactive: 0.164 |
| ACATGATA | active: 0.413 |
| ACCTCGAA | inactive: -0.0127 |
| ACAGGAAA | inactive: 0.19 |
| GTCTATCA | inactive: 0.0945 |
| CCGGGGAC | inactive: -0.208 |
| ATTAGCCA | ≥ 0.0405 |
| ATTTAAGA | inactive: 0.0381 |
| ACGTAGCC | inactive: -0.102 |

| Sequence | PBM E-score |
| --- | --- |
| ACATTACC | inactive: 0.12 |
| ACAGGGCT | inactive: -0.0308 |
| CTACGTCC | inactive: -0.022 |
| GTACCCCA | inactive: -0.0476 |
| CCCCTCAA | inactive: -0.242 |
| AAGGTGTG | inactive: 0.0323 |
| GGGCTTAC | inactive: -0.119 |
| AATTTAAA | inactive: 0.0692 |
| AGGTAATG | inactive: 0.0391 |
| GCTTGGAA | inactive: -0.0323 |
| AAATTTCT | inactive: -0.0395 |
| CCTATGCA | inactive: 0.0958 |
| ACACTTCG | inactive: 0.0579 |
| GGACCTAC | inactive: -0.0116 |
| CACAGAGG | inactive: -0.06 |
| CCTGGCCG | inactive: -0.192 |
| CTCGTGAC | inactive: -0.0131 |
| ACGACCAA | inactive: 0.0331 |
| CATTCTAG | inactive: 0.108 |
| GGGCTAAA | inactive: -0.154 |
| ATCTCGAG | inactive: -0.0318 |
| CGGGTTTA | inactive: -0.0325 |
| AGCGGGGA | inactive: -0.159 |
| ACACCGCT | inactive: 0.0823 |
| CACCTACC | inactive: -0.0826 |

| Sequence | PBM E-score |
| --- | --- |
| CAGAAAAA | inactive: 0.00797 |
| CCAACAGA | inactive: 0.00649 |
| CCTACGCG | inactive: -0.0395 |
| AGTGCTCG | inactive: 0.0345 |
| GCTAGGAA | inactive: -0.134 |
| GCCCCATA | inactive: -0.205 |
| ACCTTCTA | inactive: 0.0348 |
| GGAGGCCA | inactive: -0.293 |
| GAGCAATC | inactive: -0.0149 |
| AGAGGCAA | inactive: -0.029 |
| CAACGGTC | inactive: -0.0524 |
| AGAGGCGA | inactive: -0.1 |
| ACACGTAC | inactive: 0.307 |
| CGTAACAC | inactive: 0.26 |
| ACAGGCCT | ≥ 0.0238 |
| GGGTGGTA | inactive: -0.0433 |
| CGTTGAAC | inactive: -0.00169 |
| AGCGATAA | inactive: -0.0803 |
| ACAGAGGT | ≥ 0.0767 |
| AGCTTCCA | inactive: -0.15 |
| CTTAGAGC | inactive: -0.0766 |
| GTGAATTA | inactive: 0.062 |
| ACCCCCAG | inactive: -0.321 |
| CCAACTTC | inactive: -0.115 |
| GACCAGTA | inactive: -0.0165 |

| Sequence | PBM E-score |
| --- | --- |
| ATATGGTG | inactive: 0.0644 |
| CTCTGTAA | inactive: 0.12 |
| GCTTCCGA | inactive: -0.0431 |
| ATCTGCCG | inactive: -0.0474 |
| ACAATTTC | inactive: 0.111 |
| CCATCCAA | inactive: 0.106 |
| CATTCGGA | inactive: 0.0408 |
| CGGGGTAA | inactive: -0.137 |
| CTGGTAGA | inactive: 0.0426 |
| CAAGTAAA | inactive: 0.156 |
| CGTTGTTC | inactive: 0.209 |
| ACCTGGTC | inactive: -0.0411 |
| CGTGCTAC | inactive: -0.118 |
| TCTCGCCA | inactive: -0.132 |
| GACCACGC | inactive: -0.102 |
| CCACACGC | inactive: -0.079 |
| CCTGAGGC | inactive: -0.258 |
| CCAGCCCA | inactive: -0.204 |
| AGGGCGAA | inactive: -0.13 |
| AAAGCGTG | inactive: 0.0162 |
| CAAACGAC | inactive: 0.102 |
| GACCGGAA | inactive: -0.0188 |
| CATCCATG | inactive: 0.117 |
| TGTCGGAA | inactive: 0.245 |
| GATCGCCA | inactive: -0.0838 |

| Sequence | PBM E-score |
| --- | --- |
| AATGTATG | inactive: 0.243 |
| ATTTTTTA | ≥ 0.103 |
| AGCCCGCG | inactive: -0.222 |
| CCGAACGA | inactive: 0.0498 |
| GGGAAACA | inactive: 0.0916 |
| AAATGTCA | inactive: 0.266 |
| GAGAGTGA | inactive: -0.0562 |
| ACGGAGAG | inactive: -0.149 |
| TACTAAAA | inactive: 0.0194 |
| TCCTCACA | inactive: 0.00493 |
| ACCCGTCT | inactive: -0.0421 |
| ATCGTACA | active: 0.349 |
| AGGTCTCA | inactive: -0.08 |
| AGGAAGAG | inactive: -0.127 |
| CATCCTAG | inactive: 0.0143 |
| ACACTCTA | inactive: 0.0891 |
| CGGAATAC | inactive: 0.0594 |
| ATGCGCAC | inactive: -0.0396 |
| CTTCGACA | inactive: 0.207 |
| ACTAGTAG | inactive: 0.219 |
| AGAACGAT | inactive: 0.134 |
| CTTGAAAC | inactive: 0.0181 |
| GCCCGGGC | inactive: -0.292 |
| GCGTGTCA | inactive: 0.284 |
| ACTCCAGA | inactive: -0.0847 |

| Sequence | PBM E-score |
| --- | --- |
| CACTCTTA | inactive: 0.0507 |
| GACACCTC | inactive: 0.136 |
| CCCGCAAG | inactive: -0.183 |
| ACACCGCA | inactive: 0.0414 |
| AACACCCG | inactive: 0.0438 |
| AATTTTTA | inactive: 0.0856 |
| AATTAGGA | inactive: 0.0255 |
| AAGGATAT | inactive: 0.125 |
| GAGTCAAC | inactive: 0.0923 |
| AAGAAGGA | inactive: 0.0173 |
| TGAGTGCA | inactive: -0.0812 |
| GACACCGC | inactive: -0.0458 |
| CGTTTTTC | inactive: -0.0114 |
| CCGCAGAC | inactive: -0.168 |
| ATTAAGGG | inactive: -0.0468 |
| CCAAGGCG | inactive: -0.153 |
| ACAGAGGC | inactive: -0.0573 |
| ATAAGTAC | inactive: 0.158 |
| CGCGCGCC | inactive: -0.112 |
| CAAAACGC | inactive: -0.0204 |
| AGATTGAG | inactive: 0.0476 |
| GGAAGTGA | inactive: 0.0155 |
| CAATCACC | inactive: -0.0198 |
| AAGATGAC | inactive: 0.0886 |
| CACACGGC | inactive: -0.113 |

| Sequence | PBM E-score |
| --- | --- |
| AAAGATGA | inactive: 0.107 |
| CAGTATAG | inactive: 0.0614 |
| ACTAAATC | inactive: 0.0459 |
| GCGGGAGA | inactive: -0.199 |
| CTGTTAGC | inactive: -0.0813 |
| TCATCCAA | inactive: 0.122 |
| AATGAACT | inactive: 0.0147 |
| GCAATTGA | inactive: 0.012 |
| GCCTGCGA | inactive: -0.178 |
| CGCTTTAC | inactive: 0.0463 |
| GCCAAGGA | inactive: -0.114 |
| AACGGGGA | ≥ -0.0432 |
| CGCGGACA | inactive: 0.0764 |
| CGTGTTTA | active: 0.319 |
| ATGTGCTG | inactive: 0.107 |
| AGTACTGC | inactive: -0.00909 |
| GTCTGTGA | inactive: 0.106 |
| AGGAACCA | inactive: 0.036 |
| CAAGAAAG | inactive: 0.0553 |
| CTTGTATA | active: 0.353 |
| CCACCCCC | inactive: -0.291 |
| CCAATCAC | inactive: 0.0106 |
| TCCCGGCA | inactive: -0.143 |
| TCTAACAA | inactive: 0.177 |
| GTTGTGTA | inactive: 0.298 |

| Sequence | PBM E-score |
| --- | --- |
| GAGTCGTA | inactive: 0.0466 |
| ACTGAATC | inactive: 0.0151 |
| GGCCCGTA | inactive: -0.0773 |
| AATTCTAT | inactive: 0.124 |
| CCTTTGCG | inactive: -0.0869 |
| AGGAATCA | inactive: 0.0777 |
| AGCCCTGA | inactive: -0.125 |
| CTGAAATC | inactive: -0.0582 |
| CTCTAGGA | inactive: -0.117 |
| AAAAAAGG | inactive: -0.0979 |
| AATTGTAT | inactive: 0.228 |
| CACTTCCC | inactive: -0.138 |
| ATTTTGGA | inactive: 0.102 |
| TGTCAAAA | inactive: 0.261 |
| ACAGTGTC | inactive: 0.144 |
| AGGAAATA | inactive: 0.128 |
| ACACTCAG | inactive: -0.0055 |
| CTTCACCA | inactive: -0.177 |
| AGTCATGC | inactive: 0.041 |
| CCCACGTA | inactive: -0.0338 |
| CCGGCCGC | inactive: -0.328 |
| CCGTACGA | inactive: 0.111 |
| CAGGACAA | inactive: 0.208 |
| GAAAATCA | inactive: 0.141 |
| ATACGGCG | inactive: -0.0679 |

| Sequence | PBM E-score |
| --- | --- |
| AATTTCGC | inactive: -0.00371 |
| ATAGCATC | inactive: 0.0469 |
| GATCCGGA | inactive: -0.028 |
| ATATTTAG | inactive: 0.0428 |
| CATAAAGC | inactive: -0.0633 |
| GGGTTATA | inactive: 0.0172 |
| ATACACAG | inactive: 0.193 |
| CGGGTATC | inactive: -0.0353 |
| GCGGTCGA | ≥ -0.0554 |
| TGGGGCAA | inactive: -0.0702 |
| AGGAATAC | inactive: 0.0898 |
| CTAGAAGA | inactive: -0.00033 |
| ACCGGCCC | inactive: -0.207 |
| AAGCTCCA | inactive: -0.0536 |
| TTAGGAAA | inactive: 0.0877 |
| CATTCCAA | inactive: 0.0752 |
| CGCCAGAA | inactive: -0.165 |
| CACCAGAA | inactive: 0.0446 |
| TCCTAAAA | ≥ 0.0422 |
| GATGACGA | inactive: 0.132 |
| AGGACACA | ≥ 0.208 |
| CTTCCGAA | inactive: -0.113 |
| ATCAGCTG | inactive: 0.0385 |
| CCAGGCGA | inactive: -0.225 |

— the supplement of paper PMC3724861
